# Experimental data from the supplement of paper PMC3334620.
# In all, about 33,000 sequences were measured (“E-score (-0.5 to 0.5)”: median about -0.054, highest 2% from about 0.39 on). This is one part of the list.
# Target: Ylr278c (UniProt Q05854)
# Experiment: PBM E-score (8-mer binding enrichment) (E-score (-0.5 to 0.5)); higher = stronger / more preferred TF binding; most listed sequences are background and not binding sites
# Settings: protein concentration: 200 nM; construct: GST-DNA-binding domain
# Method in brief: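 Yeast transcription factors, full-length or as DNA-binding domains, were expressed with a GST tag using PURExpress in vitro transcription/translation. At about 100-200 nM they were applied to universal all-10-mer Agilent arrays, double-stranded by primer extension on fresh or once-stripped slides. Fluorescent anti-GST detected bound protein, and masliner normalised the scans. E-scores for ungapped eight-base words, pooled with reverse complements, came from the Universal PBM Analysis Suite.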
row,Sequence,PBM E-score
1,ATCACGCG,0.17
2,AAAAGGTG,-0.196
3,ATACTAGG,0.0458
4,CACAAGCA,-0.275
5,GGGCAACA,0.0452
6,GATGATAA,-0.0127
7,ATTCAAGG,-0.282
8,AACTGAGA,-0.257
9,CCCAATCG,0.00259
10,ACCAGCGT,-0.299
11,AGCGTACA,-0.326
12,ATCATGGG,-0.258
13,CCCCCGAG,0.076
14,AGGCCCGG,0.22
15,AGAAGTTA,-0.278
16,CTCAAATA,-0.122
17,GGTAAGAC,-0.122
18,ACAAGGCC,-0.0782
19,AGCTGGAT,-0.0941
20,CTTATACA,-0.0911
21,CTGATTTA,0.0293
22,ACCAATCC,0.0813
23,AAACTGGT,-0.105
24,CCTTGAAC,-0.189
25,GACACTGA,-0.0883

row,Sequence,PBM E-score
1,GAGTGTAC,-0.00985
2,GTAGCACA,-0.137
3,AGAGACAT,-0.0847
4,AGTGACGA,-0.136
5,CACGTCCG,0.244
6,AGAGTTTA,0.049
7,GGGGTTAA,0.0589
8,CGGACGGA,0.397
9,AACCGGAT,0.367
10,ATGTTCCG,0.429
11,GATCATCC,0.0203
12,ACAATTAG,-0.148
13,CCCGCACC,0.188
14,CGGATTGC,0.285
15,CACTTCAC,-0.0647
16,AGCGCAAC,0.139
17,ATGTTCTG,-0.11
18,CCATTCCG,0.332
19,TCAAACAA,-0.0998
20,CTTTGAAC,-0.111
21,AAGTCAAG,-0.255
22,CGGTCGAA,0.168
23,GCATTAGC,-0.0544
24,GGACCTCC,0.251
25,ATTCTCCC,0.0768

row,Sequence,PBM E-score
1,CAGTCTGA,-0.199
2,GGGTACCA,-0.244
3,ATCGCCTA,0.084
4,ACAGAGTA,-0.178
5,GAGAAATA,0.155
6,AATAAGGC,-0.111
7,ATCCAGAA,-0.122
8,ATTAAGAA,-0.0604
9,CAGTCAGA,-0.206
10,CCGGGGGC,0.271
11,ACAGAGCT,-0.221
12,CCGTATAA,0.196
13,ACGTTTTA,-0.206
14,GACTATAC,-0.134
15,TACCTTAA,-0.147
16,ACAAATAG,0.0001
17,CACCCCAA,-0.0388
18,CCCGTTTA,0.14
19,AAATCGTT,-0.154
20,CCCTGCCA,-0.125
21,CCAGGCAG,-0.161
22,GGTATTGA,-0.0384
23,GCCTTTAC,-0.0652
24,AATACACT,-0.261
25,GGTCTATA,-0.134

row,Sequence,PBM E-score
1,GTTGGGCA,-0.127
2,CTTGCCAC,-0.186
3,AGTGCTTA,-0.229
4,AGTGGGCC,-0.288
5,GTGTAAAA,-0.0333
6,CTCCTATC,-0.0262
7,ATGCGGGA,0.254
8,ATTTTAAA,0.0686
9,AAGTAGGT,-0.099
10,ACTGCAAG,-0.168
11,CTGCCAGC,-0.214
12,CCAGAGTA,0.00877
13,GGAGAGTA,0.243
14,CACTTATA,-0.097
15,TCTTAGAA,0.0122
16,ACCATCGC,-0.073
17,ACTTTTGA,0.0107
18,ACAATACG,0.077
19,CGACTTCA,-0.0229
20,ACACACTG,-0.267
21,AGGATTGG,-0.176
22,CCCAACCG,-0.0967
23,CACAAGTA,-0.0997
24,AACCGCTC,-0.0374
25,AGAGATCG,-0.0659

row,Sequence,PBM E-score
1,AGAAGCAA,-0.0422
2,AATCCACT,-0.0727
3,GCCTCGCA,-0.158
4,CATGTAAG,-0.0988
5,CTAAGGCC,0.00484
6,CCGAGGAA,0.315
7,ACGTGTCT,-0.216
8,ACGGTAGA,-0.0217
9,AGACAACG,0.0292
10,CGGATGAG,0.194
11,AATTATAC,0.251
12,AAAAGAGA,-0.223
13,CCTACACA,0.0303
14,ACCCATCG,0.113
15,TCAGCTGA,-0.145
16,ACTTTGCG,-0.0125
17,ATGAGCAG,-0.208
18,ACCATCCG,0.148
19,ATGCCGGG,0.336
20,GTTGCTTA,-0.107
21,AACTTTGC,-0.0101
22,CGAGTTTA,0.0666
23,AACATCCG,0.385
24,GCGTGTTA,-0.258
25,CCACTTTA,-0.0297

row,Sequence,PBM E-score
1,AAACCGAA,0.0446
2,CCAAATTA,-0.141
3,CCCTAACG,-0.138
4,CACTAAGG,-0.0893
5,ACACATAT,-0.177
6,CTGAGGTA,0.00191
7,CAATGACC,-0.206
8,GCGTGATA,-0.0659
9,AAAGTGCC,0.021
10,CATTGTTC,0.0678
11,GCTATTGA,-0.0423
12,AATAGCCG,0.232
13,ACTTCATA,-0.116
14,ACAGTGCA,0.017
15,CACGGATA,0.196
16,CGGACGAA,0.332
17,ACGGGCCC,0.142
18,GGACTTGA,0.179
19,ATTCTTGG,0.117
20,ATTAAACC,0.0693
21,AGACCCCT,-0.271
22,ATCAATGA,-0.0268
23,GGCCCACC,0.0651
24,ACGTACTA,-0.212
25,CGATTCTC,-0.00605

row,Sequence,PBM E-score
1,GAGGGGAA,0.0991
2,GACCCGCA,-0.00573
3,CCTACTCC,0.14
4,GCGCTCCA,0.0139
5,ATCCTCCG,0.431
6,GACAATAA,0.03
7,CTAGTAAC,-0.167
8,CGACACTC,0.0756
9,ATCGTCGC,-0.165
10,CAGCGCGG,0.213
11,CACCGGTG,0.306
12,CGACGGAG,0.421
13,ATTGATGG,-0.069
14,CCTACGAA,-0.0211
15,GAAGGTCA,-0.119
16,CCGTTCAC,-0.0424
17,ACCTCCTC,-0.0564
18,CGCATCGC,-0.0943
19,GAATCTCC,0.368
20,CCCTTCTC,-0.0903
21,CTTGTGTA,-0.127
22,CCGAAAGA,0.338
